# Measured values from patent publication US9642869B2, “Boronic acid derivatives and therapeutic uses thereof” (Rempex Pharmaceuticals, Inc., priority 2013, dated 2017).
# System: SHV-12 KP1010
# Assay: Aztreonam potentiation (MPC@4)
# Type: cell-based
# Details: not given
row,Compound,AZT MPC4 SHV-12 KP1010
1,"O=C(Cc1cccs1)N[C@H]1Cc2cccc(C(=O)O)c2OB1O [CPD A, reference compound]",X (key: X: MIC of less than 1 μg/mL; Y: MIC of 1 μg/mL to 10 μg/mL; Z: MIC of greater than 10 μg/mL)
2,"O=C(COCc1ccccc1)N[C@H]1Cc2cccc(C(=O)O)c2OB1O [CPD B, reference compound]",Y (key: X: MIC of less than 1 μg/mL; Y: MIC of 1 μg/mL to 10 μg/mL; Z: MIC of greater than 10 μg/mL)
3,"Cn1nnnc1SCC(=O)N[C@H]1Cc2cccc(C(=O)O)c2OB1O [Compound 2, (R)-2-hydroxy-3-(2-(1-methyl-1H-tetrazol-5-ylthio)acetamido)-3,4-dihydro-2H-benzo[e][1,2]oxaborinine-8-carboxylic acid]",X (key: X: MIC of less than 1 μg/mL; Y: MIC of 1 μg/mL to 10 μg/mL; Z: MIC of greater than 10 μg/mL)
4,"O=C(CSC(F)F)N[C@H]1Cc2cccc(C(=O)O)c2OB1O [Compound 3, (R)-3-(2-(difluoromethylthio)acetamido)-2-hydroxy-3,4-dihydro-2H-benzo[e][1,2]oxaborinine-8-carboxylic acid]",X (key: X: MIC of less than 1 μg/mL; Y: MIC of 1 μg/mL to 10 μg/mL; Z: MIC of greater than 10 μg/mL)
5,"O=CN[C@H]1Cc2cccc(C(=O)O)c2OB1O [Compound 4, (R)-3-formamido-2-hydroxy-3,4-dihydro-2H-benzo[e][1,2]oxaborinine-8-carboxylic acid]",X (key: X: MIC of less than 1 μg/mL; Y: MIC of 1 μg/mL to 10 μg/mL; Z: MIC of greater than 10 μg/mL)
6,"Nc1nnc(SCC(=O)N[C@H]2Cc3cccc(C(=O)O)c3OB2O)s1 [Compound 5, (R)-3-(2-(5-amino-1,3,4-thiadiazol-2-ylthio)acetamido)-2-hydroxy-3,4-dihydro-2H-benzo[e][1,2]oxaborinine-8-carboxylic acid]",X (key: X: MIC of less than 1 μg/mL; Y: MIC of 1 μg/mL to 10 μg/mL; Z: MIC of greater than 10 μg/mL)
7,"NC(=O)N[C@H]1Cc2cccc(C(=O)O)c2OB1O [Compound 6, (R)-2-hydroxy-3-ureido-3,4-dihydro-2H-benzo[e][1,2]oxaborinine-8-carboxylic acid]",Y (key: X: MIC of less than 1 μg/mL; Y: MIC of 1 μg/mL to 10 μg/mL; Z: MIC of greater than 10 μg/mL)
8,"O=C(CSc1nncs1)N[C@H]1Cc2cccc(C(=O)O)c2OB1O [Compound 7, (R)-3-(2-(1,3,4-thiadiazol-2-ylthio)acetamido)-2-hydroxy-3,4-dihydro-2H-benzo[e][1,2]oxaborinine-8-carboxylic acid]",X (key: X: MIC of less than 1 μg/mL; Y: MIC of 1 μg/mL to 10 μg/mL; Z: MIC of greater than 10 μg/mL)
9,"[N-]=[N+]=NCC(=O)N[C@H]1Cc2cccc(C(=O)O)c2OB1O [Compound 8, (R)-3-(2-azidoacetamido)-2-hydroxy-3,4-dihydro-2H-benzo[e][1,2]oxaborinine-8-carboxylic acid]",X (key: X: MIC of less than 1 μg/mL; Y: MIC of 1 μg/mL to 10 μg/mL; Z: MIC of greater than 10 μg/mL)
10,"CN(C)C(=O)C(=O)N[C@H]1Cc2cccc(C(=O)O)c2OB1O [Compound 9, (R)-3-(2-(dimethylamino)-2-oxoacetamido)-2-hydroxy-3,4-dihydro-2H-benzo[e][1,2]oxaborinine-8-carboxylic acid]",X (key: X: MIC of less than 1 μg/mL; Y: MIC of 1 μg/mL to 10 μg/mL; Z: MIC of greater than 10 μg/mL)
11,"CN(C)C(=O)CC(=O)N[C@H]1Cc2cccc(C(=O)O)c2OB1O [Compound 10, (R)-3-(3-(dimethylamino)-3-oxopropanamido)-2-hydroxy-3,4-dihydro-2H-benzo[e][1,2]oxaborinine-8-carboxylic acid]",X (key: X: MIC of less than 1 μg/mL; Y: MIC of 1 μg/mL to 10 μg/mL; Z: MIC of greater than 10 μg/mL)
12,"CSC(=O)N[C@H]1Cc2cccc(C(=O)O)c2OB1O [Compound 11, (R)-2-hydroxy-3-(methylthiocarbonylamino)-3,4-dihydro-2H-benzo[e][1,2]oxaborinine-8-carboxylic acid]",X (key: X: MIC of less than 1 μg/mL; Y: MIC of 1 μg/mL to 10 μg/mL; Z: MIC of greater than 10 μg/mL)
13,"O=C(N[C@H]1Cc2cccc(C(=O)O)c2OB1O)c1cccnc1 [Compound 12, (R)-2-hydroxy-3-(nicotinamido)-3,4-dihydro-2H-benzo[e][1,2]oxaborinine-8-carboxylic acid]",X (key: X: MIC of less than 1 μg/mL; Y: MIC of 1 μg/mL to 10 μg/mL; Z: MIC of greater than 10 μg/mL)
14,"CSCC(=O)N[C@H]1Cc2cccc(C(=O)O)c2OB1O [Compound 13, (R)-2-hydroxy-3-(2-(methylthio)acetamido)-3,4-dihydro-2H-benzo[e][1,2]oxaborinine-8-carboxylic acid]",X (key: X: MIC of less than 1 μg/mL; Y: MIC of 1 μg/mL to 10 μg/mL; Z: MIC of greater than 10 μg/mL)
15,"O=C(N[C@H]1Cc2cccc(C(=O)O)c2OB1O)c1cncc(F)c1 [Compound 14, (R)-3-(5-fluoronicotinamido)-2-hydroxy-3,4-dihydro-2H-benzo[e][1,2]oxaborinine-8-carboxylic acid]",X (key: X: MIC of less than 1 μg/mL; Y: MIC of 1 μg/mL to 10 μg/mL; Z: MIC of greater than 10 μg/mL)
16,"O=C(N[C@H]1Cc2cccc(C(=O)O)c2OB1O)c1cncs1 [Compound 15, (R)-2-hydroxy-3-(thiazole-5-carboxamido)-3,4-dihydro-2H-benzo[e][1,2]oxaborinine-8-carboxylic acid]",X (key: X: MIC of less than 1 μg/mL; Y: MIC of 1 μg/mL to 10 μg/mL; Z: MIC of greater than 10 μg/mL)
17,"NC(=O)CC(=O)N[C@H]1Cc2cccc(C(=O)O)c2OB1O [Compound 16, (R)-3-(3-amino-3-oxopropanamido)-2-hydroxy-3,4-dihydro-2H-benzo[e][1,2]oxaborinine-8-carboxylic acid]",X (key: X: MIC of less than 1 μg/mL; Y: MIC of 1 μg/mL to 10 μg/mL; Z: MIC of greater than 10 μg/mL)
18,"NC(=O)C(=O)N[C@H]1Cc2cccc(C(=O)O)c2OB1O [Compound 17, (R)-3-(2-amino-2-oxoacetamido)-2-hydroxy-3,4-dihydro-2H-benzo[e][1,2]oxaborinine-8-carboxylic acid]",X (key: X: MIC of less than 1 μg/mL; Y: MIC of 1 μg/mL to 10 μg/mL; Z: MIC of greater than 10 μg/mL)
19,"O=C(N[C@H]1Cc2cccc(C(=O)O)c2OB1O)c1cncnc1 [Compound 18, (R)-2-hydroxy-3-(pyrimidine-5-carboxamido)-3,4-dihydro-2H-benzo[e][1,2]oxaborinine-8-carboxylic acid]",X (key: X: MIC of less than 1 μg/mL; Y: MIC of 1 μg/mL to 10 μg/mL; Z: MIC of greater than 10 μg/mL)
20,"Nc1nnc(C(=O)N[C@H]2Cc3cccc(C(=O)O)c3OB2O)s1 [Compound 19, (R)-3-(5-amino-1,3,4-thiadiazole-2-carboxamido)-2-hydroxy-3,4-dihydro-2H-benzo[e][1,2]oxaborinine-8-carboxylic acid]",X (key: X: MIC of less than 1 μg/mL; Y: MIC of 1 μg/mL to 10 μg/mL; Z: MIC of greater than 10 μg/mL)
21,"Nc1nnc(C(=O)N[C@H]2Cc3cccc(C(=O)O)c3OB2O)o1 [Compound 20, (R)-3-(5-amino-1,3,4-oxadiazole-2-carboxamido)-2-hydroxy-3,4-dihydro-2H-benzo[e][1,2]oxaborinine-8-carboxylic acid]",X (key: X: MIC of less than 1 μg/mL; Y: MIC of 1 μg/mL to 10 μg/mL; Z: MIC of greater than 10 μg/mL)
22,"CNC(=O)CC(=O)N[C@H]1Cc2cccc(C(=O)O)c2OB1O [Compound 21, (R)-2-hydroxy-3-(3-(methylamino)-3-oxopropanamido)-3,4-dihydro-2H-benzo[e][1,2]oxaborinine-8-carboxylic acid]",X (key: X: MIC of less than 1 μg/mL; Y: MIC of 1 μg/mL to 10 μg/mL; Z: MIC of greater than 10 μg/mL)
23,"O=C(CSC1CNC1)N[C@H]1Cc2cccc(C(=O)O)c2OB1O [Compound 22, (R)-3-(2-(azetidin-3-ylthio)acetamido)-2-hydroxy-3,4-dihydro-2H-benzo[e][1,2]oxaborinine-8-carboxylic acid]",X (key: X: MIC of less than 1 μg/mL; Y: MIC of 1 μg/mL to 10 μg/mL; Z: MIC of greater than 10 μg/mL)

# Same assay, conditions: minimum BLI concentration inhibiting growth with 4 μg/mL aztreonam
row,Compound,AZT MPC4 SHV-12 KP1010
1,"O=C(CSC(F)(F)F)N[C@H]1Cc2cccc(C(=O)O)c2OB1O [Compound 1, (R)-2-hydroxy-3-(2-(trifluoromethylthio)acetamido)-3,4-dihydro-2H-benzo[e][1,2]oxaborinine-8-carboxylic acid]",X (MIC of less than 1 μg/mL)
